Experimental data taken from article PMC4336329 (PLoS ONE, 2015).
About 14,000 (4.5%) of roughly 310,000 compounds showed an effect of 50% or more. The effect is printed as a negative number. This is one part of the list.

target: human ether-à-go-go-related gene (hERG) potassium channel (human, UniProt Q12809); assay: primary screen, population patch clamp on CHO cells stably expressing hERG
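Note: peak tail current of the secondary pulse compared with the same well before compound.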

Chain of human ether-à-go-go-related gene (hERG) potassium channel (Q12809 whole entry, looked up): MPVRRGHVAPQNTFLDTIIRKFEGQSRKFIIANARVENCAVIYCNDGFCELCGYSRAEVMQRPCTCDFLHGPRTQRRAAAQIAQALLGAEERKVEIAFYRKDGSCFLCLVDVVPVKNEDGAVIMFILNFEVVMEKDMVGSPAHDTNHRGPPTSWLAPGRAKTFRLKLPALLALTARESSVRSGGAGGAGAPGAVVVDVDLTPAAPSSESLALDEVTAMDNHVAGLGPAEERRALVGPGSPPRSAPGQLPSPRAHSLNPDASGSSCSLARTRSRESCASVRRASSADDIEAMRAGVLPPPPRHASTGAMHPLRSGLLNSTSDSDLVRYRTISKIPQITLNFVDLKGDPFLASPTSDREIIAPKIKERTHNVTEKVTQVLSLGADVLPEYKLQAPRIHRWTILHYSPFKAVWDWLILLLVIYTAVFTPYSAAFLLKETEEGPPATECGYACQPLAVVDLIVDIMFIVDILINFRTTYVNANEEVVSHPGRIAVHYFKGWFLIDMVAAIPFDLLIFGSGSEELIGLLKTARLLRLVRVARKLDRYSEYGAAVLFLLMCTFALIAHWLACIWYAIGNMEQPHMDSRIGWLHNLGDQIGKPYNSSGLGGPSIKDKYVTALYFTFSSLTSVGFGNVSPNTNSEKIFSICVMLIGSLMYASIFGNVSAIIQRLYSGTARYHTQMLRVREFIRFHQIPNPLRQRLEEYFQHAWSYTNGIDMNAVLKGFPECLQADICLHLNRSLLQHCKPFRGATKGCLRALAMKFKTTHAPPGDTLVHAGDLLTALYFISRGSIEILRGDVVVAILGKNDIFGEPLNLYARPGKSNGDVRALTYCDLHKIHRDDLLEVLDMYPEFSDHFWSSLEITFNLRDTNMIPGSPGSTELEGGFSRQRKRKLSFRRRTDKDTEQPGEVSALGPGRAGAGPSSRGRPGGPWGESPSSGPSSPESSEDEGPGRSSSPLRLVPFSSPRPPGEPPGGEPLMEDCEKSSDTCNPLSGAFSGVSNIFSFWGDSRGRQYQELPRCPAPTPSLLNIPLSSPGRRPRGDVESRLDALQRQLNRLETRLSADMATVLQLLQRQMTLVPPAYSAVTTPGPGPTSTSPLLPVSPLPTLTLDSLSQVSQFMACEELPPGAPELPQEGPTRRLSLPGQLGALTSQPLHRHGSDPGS

Row | Structure (SMILES) | hERG current change (%, negative = inhibition) at 10uM [%]
1 | O=C(OCCN(C1=NS(=O)(=O)c2ccccc21)c1ccc(Cl)cc1)c1ccco1 | -35.3
2 | Cc1ccnc(NC(=O)C2CCN(S(=O)(=O)c3cccc(C(F)(F)F)c3)CC2)c1 | 7.19
3 | COc1ccc(-c2csc(NC(=O)c3ccc(OCC(=O)N4CCOCC4)c(OC)c3)n2)cc1OC | -27.6
4 | CC(=O)NS(=O)(=O)c1ccc(NC(=O)c2ccc3c(c2)C(=O)N(CCC(C)C)C3=O)cc1 | 14.1
5 | CC1C(=O)N2CCCc3cc(S(=O)(=O)N4CCN(c5cccc(Cl)c5)CC4)cc1c32 (stereo not drawn) | -5.13
6 | CC(C)Oc1ccc(CSc2ncn[nH]2)cc1 | 14.4
7 | Cc1ccccc1NC(=O)CN1C(=O)N/C(=C\c2cccn2-c2cccc(C(=O)O)c2)C1=O | 16.7
8 | Nc1ncc(-n2cncn2)c(-c2ccccc2)n1 | 0.822
9 | O=C(CN(c1ccc(F)cc1)S(=O)(=O)c1ccc2c(c1)OCCO2)NCC1CCCO1 (stereo not drawn) | -6.89
10 | COc1ccc(C2=NS(=O)(=O)N(C)C(C(=O)Nc3ccc(F)cc3F)=C2)cc1 | 10.1
11 | COc1ccc2cc(C(=O)NCC3CCCO3)[nH]c2c1 (stereo not drawn) | 28.8
12 | Cc1cc(=O)oc2cc(OCC(=O)N3C[C@H]4C[C@@H](C3)c3cccc(=O)n3C4)ccc12 | 1.52
13 | O=C(O)c1ccc(N/N=C/c2ccc(-c3cccc(Cl)c3)o2)cc1 | 8.51
14 | COc1ccc(C(=O)NCC(=O)N2CC=C(c3ccccc3)CC2)cc1OC | -37.9
15 | Cc1ccccc1CN(C)C(C)C(=O)NCc1ccccc1 (stereo not drawn) | 17.5
16 | OCCNNC(=S)NC1CC2C=CC1C2 (stereo not drawn) | -1.57
17 | Cc1c(CCC(=O)NCCC(=O)O)c(=O)oc2cc3occ(-c4ccccc4)c3cc12 | 0.134
18 | Cc1ccc(-n2nnnc2CNC(=O)c2ccc(Br)o2)cc1C | 8.18
19 | Cc1ccc2c(c1)N(CC(=O)NCC1CCCO1)C(=O)C(C)O2 (stereo not drawn) | 0.079
20 | Cc1cccc(CN2CCSCC2)c1 | 7.05
21 | COCCn1c(SCC(=O)Nc2cccc(C)c2)nnc1C(C)C | 2.25
22 | COc1cccc(OCc2cc(C(=O)N3CCN(C)C(c4ccccc4)C3)no2)c1 (stereo not drawn) | -6.09
23 | O=C(CCc1ccccn1)N1CCCC(Nc2ccc(F)cc2)C1 (stereo not drawn) | -1.87
24 | CCC1CCCCN1Cc1nc2c(c(=O)n(C)c(=O)n2C)n1Cc1cccc2ccccc12 (stereo not drawn) | 9.75
